In all, about 390,000 compounds went through this assay and about 2,200 (0.56%) were called active. The inconclusive results got no clear call from the source; some entries with a clear call stand among them for comparison. Calls come from the whole dose curve; as a rule, active = well fitted inhibition curve with a large enough effect; inconclusive = small, poorly fitted or top-dose-only effect; inactive = no such curve, though single readings can be large or run the other way. Potencies of inconclusive entries are doubtful fits and often do not repeat.
Molecular target: Chromobox protein homolog 1 (Homo sapiens) (UniProt P83916)
Experiment: HTS for Inhibitors of HP1-beta Chromodomain Interactions with Methylated Histone Tails; note: nearly all actives have a fitted effect of over 70% in size
Conditions: AlphaScreen HP1-beta / biotin-H3K9me3 peptide binding; series mostly up to 114 µM
Source text: As our understanding of epigenetics expands, it is becoming clear that players in this field are potential targets for drug development. This area of epigenetic therapy has established applications for the treatment of cancer and neurological diseases. We have been involved in this field for a number of years and have performed high-throughput screens to identify the first small molecule inhibitors of protein methyltransferases. These methyltransferases target multiple substrates, and thus regulate many arms of an epigenetic pathway. The methylation of different substrates often generates docking sites for effector proteins that harbor binding domains (chromo, tudor, PHD, MBT and ANK repeats). It has been proposed that the binding sites generated for different proteins by these post-translational modifcations mediate downstream effects on chromatin. Consistent with this theory, di- and tri-methylation of histone H3K9 facilitates the binding of heterochromatin protein HP1. The HP1 protein harbors a chromodomain that is responsible for the methyl-dependent interaction between HP1 and lysine 9 of histone H3. HP1 was first described in flies as a heterochromatin associated protein that can regulate gene silencing. It harbors a chromodomain that binds H3K9me3. In addition, it harbors a chromoshadow domain that interacts with a large number of proteins that are involved in heterochromatin formation and gene repression. There are three highly related HP1 isoforms. All three variants are associated with pericentric heterochromatin and it is not clear whether they have specific or redundant functions. MPP8 is also involved in the repression of gene in euchromatic regions (unpublished data) and like HP1 its chromodomain binds H3K9me3. MPP8 harbors an ankyrin repeat region that is likely involved in binding and recruiting interacting proteins with transcriptional repressive function, much like the chromoshadow domain of HP1 does. We hypothesize that by inhibiting specific protein-protein interactions we will be able to develop compounds that block a single arm of an epigenetic pathway. The specificity attained by blocking a single protein-protein interaction will be far greater than that attained by blocking the enzyme that regulates one of many interactions. Low-affinity protein-protein interactions (Kd in the single- to double-digit micromolar range) such as those discussed here have been very difficult to assay by traditional techniques such as fluorescence polarization or fluorescence resonance energy transfer. We have developed a sensitive chemiluminescence-based assay (Quinn, et al. 2009), which serves as the starting point for this project. The following is a validation assay to identify lead compounds that can block methyl-dependent protein-protein interactions (specifically HP1-beta), which can be used as probes to analyze these methyl-driven interactions and perhaps even developed into targeted epigenetic therapies. NIH Chemical Genomics Center [NCGC] NIH Molecular Libraries Probe Centers Network [MLPCN] MLPCN Grant: DA031087 Assay Submitter (PI): Mark Bedford, University of Texas, Medical Anderson Cancer Center, TX
To each well, 2 uL of HP1-beta protein (final 50 nM) and 1 uL biotinylated histone peptide trimethylated at Lys9 [b-H3(1-18)K9me3] (final 50 nM) was added in 1x PBS buffer, pH 7.4, containing 0.01% Tween-20 using a nanoliter dispenser. Formation of a protein-peptide complex proceeded at room temperature for 30 min. A Kalypsys pin-tool was employed to transfer 23 nL of library compound solution in DMSO to each well. Aurintricarboxylic acid (ATA) was used as an intraplate control with a 12-point titration in duplicate. Following a 30 min incubation of the protein-peptide complex with compounds at room temperature, a mixture of 40 ug/mL each streptavidin-coated donor and nickel chelate acceptor AlphaScreen beads (final 10 ug/mL) was added in a 1 uL dispense for a final volume of 4 uL. […]
Potency is the fitted concentration of half-maximal effect; tags give direction and shape of the fitted curve.

UniProt P83916, sequence (P83916 whole entry, looked up): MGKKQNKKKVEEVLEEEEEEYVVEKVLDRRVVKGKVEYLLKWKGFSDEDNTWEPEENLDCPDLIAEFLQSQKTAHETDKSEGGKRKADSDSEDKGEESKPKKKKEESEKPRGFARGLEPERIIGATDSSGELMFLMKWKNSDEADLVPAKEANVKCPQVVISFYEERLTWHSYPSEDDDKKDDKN

SMILES	Potency
COC(=O)c1ccc(OC(=O)/C=C/c2ccco2)cc1	inconclusive: 56.2 µM [inhibitor, partial curve, poor fit]
CCS(=O)(=O)n1nc(-c2ccco2)nc1SC	inconclusive: 7.08 µM [inhibitor, full curve]
COc1ccc(C)cc1Nc1n[n+](-c2ccccc2)c(-c2c(Cl)cccc2Cl)s1	inconclusive: 44.7 µM [inhibitor, partial curve]
C=CCc1ccc(OCCOCCNCCCC)c(OC)c1	inconclusive: 11.2 µM [inhibitor, partial curve, poor fit]
Cc1ccc(CN2CCSc3ccc(C(=O)NCCc4ccccc4)cc32)cc1	inactive
Cc1cc(C)cc(OCC(=O)Nc2ccc(N3CCCCC3)cc2)c1	inconclusive: 28.2 µM [inhibitor, single point]
CSCCC(NC(=O)c1cccc(S(=O)(=O)N2CCOCC2)c1)c1nc2ccccc2[nH]1 (configuration not stated)	inconclusive: 7.94 µM [inhibitor, partial curve, poor fit]
Cc1ccc(C)c(/C(O)=C2/C(=O)C(=O)N(CCN3CCOCC3)C2c2ccco2)c1 (configuration not stated)	inconclusive: 50.1 µM [inhibitor, partial curve]
N#CC(C#N)=c1ccc2c(c1)N1C(c3ccccc3)=CC(c3ccccc3)C3CCCCC31N=2 (configuration not stated)	inconclusive: 2.24 µM [inhibitor, full curve, poor fit]
O=[N+]([O-])c1cc(Cl)ccc1N1CCN(c2ccccc2O)CC1	inconclusive: 39.8 µM [inhibitor, partial curve]
CCCOC(=O)c1c(NC(=O)C2c3ccccc3Oc3ccccc32)sc2c1CCCC2	inactive
CCN1CCN(CC(=O)Nc2cc3c(cc2C(C)=O)OCO3)CC1	inconclusive: 15.8 µM [inhibitor, full curve]
C=CCNC(=S)NCc1ccc(CNC(=S)NCC=C)cc1	inactive
CC1=CC(C)(C)n2c(O)c(N=N)c3c(C)c(C)cc1c32	inconclusive: 44.7 µM [inhibitor, partial curve]
C/C(=N\NC(=O)c1cccc(N/N=C(\C)c2cc(O)ccc2O)c1)c1cc(O)ccc1O	inconclusive: 56.2 µM [inhibitor, partial curve, poor fit]
CCC(Sc1nc2ccncc2[nH]1)C(=O)Nc1ccc(F)cc1 (configuration not stated)	inactive
COC(=O)N1CCc2c(sc(NC(=O)C3COc4ccccc4O3)c2C(N)=O)C1 (configuration not stated)	inconclusive: 15.8 µM [inhibitor, partial curve]
Cc1ccc(Cl)cc1N1CCN(C(=O)Cn2ncc3c([nH]c4ccccc43)c2=O)CC1	inactive
CCOC(=O)N1CCN(C(=O)c2ccc3c(c2)N(Cc2cc(C)ccc2C)C(=O)c2ccccc2S3=O)CC1 (configuration not stated)	inactive
C#CCOCCOCCOCCNc1nc(N2CCN(C(=O)CCCCCCCCCCNC(=O)Cn3cc(CCCCCN)nn3)CC2)nc(N2CCN(C(=O)CCCCCCCCCCNC(=O)[C@H]([C@@H](C)CC)n3cc(CCCCN=C(N)N)nn3)CC2)n1	inconclusive: 50.1 µM [inhibitor, partial curve]
CO/N=C(\C(=O)O)c1csc(NN=C(C)C)n1	inconclusive: 50.1 µM [inhibitor, partial curve, poor fit]

SMILES	Potency
CCN(CC)S(=O)(=O)c1cccc(C(=O)NC(C(=O)Nc2nnc(C3CC3)s2)C(C)C)c1 (configuration not stated)	inconclusive: 25.1 µM [inhibitor, full curve]
Cc1ccc(Cn2cc(S(=O)(=O)c3ccc(C(C)C)cc3)c(=O)c3cc4c(cc32)OCO4)cc1	inactive
CCOC(=O)N1CCN(CC(=O)Nc2nc3ccc(OC)cc3s2)CC1	inactive
CC(=O)Nc1ccc(NC(=O)CSc2nnc3ccc(-c4ccccn4)nn23)cc1	inactive
COc1cccc(CNC(=O)c2cc3n(n2)CCCN(Cc2ccc(C)cc2)C3=O)c1OC	inactive
c1ccc2c(OCCCCN3CCCC3)cccc2c1	inconclusive: 50.1 µM [inhibitor, partial curve, poor fit]
CC(C)(C)c1ccc(NC(=O)c2ccccc2)c([N+](=O)[O-])c1	inconclusive: 39.8 µM [inhibitor, partial curve]
Cc1ccc(/C=C2\SC(=S)N(CCCC(=O)Nc3cccc(C(=O)O)c3)C2=O)cc1	inconclusive: 39.8 µM [inhibitor, partial curve, poor fit]
O=C(NCc1ccccn1)c1cccc([N+](=O)[O-])c1	inactive
COc1cc(/C=C2\SC(=S)N(CCCCC(=O)O)C2=O)ccc1OS(=O)(=O)c1ccc(C)cc1	inconclusive: 50.1 µM [inhibitor, partial curve]
COC(=O)C1CCCCN1C(=O)c1cccc(OC2CCN(C(=O)C3CC3)CC2)c1 (configuration not stated)	inactive
CCOC(=O)CSc1c(-c2ccc(Cl)cc2)[nH]c2ccccc12	inactive
Cc1ccc(-c2n[nH]c(=S)n2C)cc1	inconclusive: 89.1 µM [inhibitor, single point]
CCN(Cc1ccccc1)C(=O)Cn1c(=O)n(-c2ccc(OC)cc2OC)c(=O)c2c(C)c(C)sc21	inactive
C/C(=N\Nc1ccc(Cl)c(C(=O)O)c1)c1ccc(Br)s1	inconclusive: 22.4 µM [inhibitor, full curve]
CCOC(=O)c1sc2nc(CSc3ccccc3)nc(N3CCCN(C)CC3)c2c1C	inconclusive: 14.1 µM [inhibitor, full curve, poor fit]
COC(=O)[C@@]1(Cc2ccccc2)[C@H]2C(=O)N(Cc3ccccc3)C(=O)[C@H]2[C@H]2CN(C)C(=NCc3ccccc3)N21	inactive
CCN(CC)Cc1c(O)c(Cl)cc2c(C)cc(=O)oc12	inconclusive: 79.4 µM [inhibitor, partial curve]
COc1ccc(-c2[nH]n(-c3ccc([N+](=O)[O-])cc3)c(=O)c2C=NCc2ccccc2)cc1	inactive
Cc1ccc(-c2csc(=Nc3cccnc3)n2CCCn2ccnc2)cc1C	inconclusive: 25.1 µM [inhibitor, partial curve, poor fit]
Oc1c(CN2CCOCC2)cc(CN2CCOCC2)c(O)c1CN1CCOCC1	active: 8.91 µM

— PubChem BioAssay AID540317 (National Center for Advancing Translational Sciences (NCATS), 2011)
